Structures are written as SMILES.

Assay [1] relates to patients with chronic moderate to severe, non-cancer pain. The assay is described as follows: Study 1: Phase II randomized double-blind crossover, pain relief (VAS), Q8001 vs morphine. The format is in vivo, human.
Assay [2] has the same test system. Put plainly: Study 2: Phase II randomized double-blind crossover, pain relief (VAS), Q8002 vs morphine.
Setting [3] is: mean reduction in VAS from baseline.

Turning to `CN1CC[C@]23c4c5ccc(O)c4O[C@H]2[C@@H](O)C=C[C@H]3[C@H]1C5` [Morphine, morphine], the results for the “PAIN SCORE (VAS) At DAYS 4-5” value in assay [1] (days 4-5) and in assay [2] (days 4-5) were 4 and 3.8, respectively. Also, the entries for the “% PAIN REDUCTION” value in assay [1] (setting [3]) and in assay [2] (setting [3]) were 11% and 21%, respectively.

The record behind these values is patent US20090291975A1, “DUAL OPIOID PAIN THERAPY” (priority 2008, published 2009).
